Experimental data taken from the BET-seq Pho4 binding data (Le et al. 2018).
Some of the results follow. The energies were worked out here from pooled read counts, against the library average; single values are noisy.

These sequences were tested against T1, Pho4 (S. cerevisiae) (UniProt P07270) (assay: relative binding free energy (BET-seq); higher = weaker binding). Settings: reference: library average.
T1 sequence: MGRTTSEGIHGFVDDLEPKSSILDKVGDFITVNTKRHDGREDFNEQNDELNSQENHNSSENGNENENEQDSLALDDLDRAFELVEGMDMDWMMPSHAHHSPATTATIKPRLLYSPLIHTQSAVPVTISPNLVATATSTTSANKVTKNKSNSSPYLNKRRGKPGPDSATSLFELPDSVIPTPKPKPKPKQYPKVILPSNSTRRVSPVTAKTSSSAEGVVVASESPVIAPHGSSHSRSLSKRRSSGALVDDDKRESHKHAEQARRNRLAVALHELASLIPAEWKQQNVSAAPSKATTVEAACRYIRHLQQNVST

| Sequence | relative binding free energy [kcal/mol] |
| --- | --- |
| ACTATCACGTGTATTT | 0.09 |
| GGGGACACGTGTCGGT | 0.01 |
| AATATCACGTGTGTGA | 0.15 |
| GGTGGCACGTGCGTAA | -0.1 |
| TGGTCCACGTGGGAGG | -0.09 |
| GGAGACACGTGTCGGG | 0 |
| AGTTGCACGTGGGTAG | -0.14 |
| GTGTCCACGTGGATTG | 0.1 |
| AGTGGCACGTGTGGAG | -0.02 |
| TGGTACACGTGAGATT | 0.32 |
| AGGGGCACGTGCGGCT | -0.29 |
| ATGGGCACGTGTTCGG | -0.02 |
| CAGGGCACGTGGAGTA | -0.15 |
| GTATGCACGTGAAGAG | 0.33 |
| GGTTGCACGTGATAGT | 0.05 |
| CTTGGCACGTGGAGTT | -0.07 |
| TGGTTCACGTGTATTT | 0.24 |
| AAATTCACGTGAAGAG | 0.38 |
| GTTTGCACGTGTCTGA | -0.02 |
| GGTTACACGTGTAAGG | 0.25 |
| TGGTGCACGTGACTGA | 0.11 |

| Sequence | relative binding free energy [kcal/mol] |
| --- | --- |
| TCGGACACGTGTATGG | 0.07 |
| TGTTGCACGTGTCGGA | 0.11 |
| TTTGGCACGTGGATTT | -0.06 |
| GAGATCACGTGGTTGT | 0.29 |
| GGGATCACGTGATAGT | 0.3 |
| CGGGGCACGTGTTGGT | -0.06 |
| CATGTCACGTGTTTTG | 0.16 |
| TTTGTCACGTGGCTGT | 0 |
| GAGTGCACGTGGGCTG | -0.29 |
| AATGCCACGTGTGTGG | -0.06 |
| AAGGTCACGTGCGGGT | 0.05 |
| TGGGTCACGTGATATC | 0.29 |
| AAAGACACGTGAGGTG | 0.21 |
| TGCGGCACGTGAGTAT | 0.13 |
| TATGTCACGTGAAGGC | 0.28 |
| CGGAACACGTGGGTTA | -0.1 |
| GTATACACGTGGTTAA | 0.04 |
| TCTGTCACGTGAAGGG | 0.27 |
| GTAGCCACGTGGGGGA | -0.19 |
| TTTGGCACGTGAGTTA | 0.17 |
| TCTAGCACGTGATTTT | 0.16 |

| Sequence | relative binding free energy [kcal/mol] |
| --- | --- |
| GGAAACACGTGGTAGT | 0.02 |
| GGAGCCACGTGTGGTG | -0.05 |
| AGTGGCACGTGTAACG | -0.06 |
| GTCAGCACGTGGATTG | 0 |
| TGGGGCACGTGAACTG | 0.04 |
| CTATGCACGTGGGTAG | -0.22 |
| AGGTTCACGTGGCGAG | 0.17 |
| TTTATCACGTGGGCCT | 0.12 |
| GTCGGCACGTGCTGGT | -0.01 |
| TGGGCCACGTGGTCGG | -0.07 |
| ACAGGCACGTGGTGAG | -0.15 |
| GTTCTCACGTGTGCGG | 0.32 |
| GCTAGCACGTGTAGGC | 0.08 |
| AGAGTCACGTGGGGGA | -0.05 |
| AGGGTCACGTGCTTTT | -0.12 |
| ACTTGCACGTGTATGG | -0.09 |
| TTAAACACGTGAGATA | 0.29 |
| TTATGCACGTGGATAG | -0.03 |
| GCGTCCACGTGGGGTT | -0.07 |
| AATTACACGTGTTTAG | 0.19 |
| TGGTCCACGTGGTAGT | -0.03 |
